For the series, the system named is vascular calcification. Nature of the series: Vitamin D3 (s.c.) + high-phosphate diet rat model of VC. The series is classed as in vivo. The note with it: 30 mg/kg s.c. twice daily. The method, then: Male Sprague-Dawley rats were housed two per cage with free access to water and standard chow and submitted to a 12-h light/dark cycle. Compounds were administered and doses calculated using the salt form. […] Sham groups were injected with 0.9% NaCl instead of vitamin D3. […] Blood samples of 500 µL were collected on day 8 by fine needle from the tail vein and at sacrifice on day 12. […] Serum creatinine, calcium, and phosphorus were measured using standard colorimetric biochemistry analysis (Cobas Mira). Calcium tissue content was measured from dried carotids, whole left kidneys, and abdominal aortas by ICP-MS analysis. […] Images of the rat aortic trees were acquired on a Canon 5D MARKIII (Canon, Tokio, Japan) equipped with a 50 mm lens.
Calcium tissues’ contents were measured at the Central Environmental Laboratory (EPFL, Lausanne, Switzerland). Dry tissues (90 °C, overnight) were weighed and digested by aqua regia overnight at RT, followed by 2 h reflux, after which the solvent was completely evaporated with a steady flow of nitrogen gas. The dried samples were then reconstituted and homogenized with nitric acid. Calcium standards and samples were diluted with nitric acid. Absorbance was recorded using ICP-OES (Shimadzu ICPE-9000, Shimadzu). Two technical replicates were measured for each sample. Standard solutions were also included with the experimental samples for each set of measurements. Tissue concentrations of calcium were expressed as mg/g of dry tissue.

In the case of `COCCOCCO[C@@H]1[C@@H](OP(=O)(O)O)[C@H](OCCOCCOC)[C@@H](OP(=O)(O)O)[C@@H](OP(=O)(O)O)[C@H]1OP(=O)(O)O` [(OEG2)2-IP4, 4,6-Di-O-(methoxy-diethyleneglycol)-myo-inositol-1,2,3,5-tetrakis(phosphate)], the “plasma calcium and phosphate levels” value is “not impacted”; the plasma creatinine was 39.8 ± 6.6 µM; the renal calcium content entry is “reduction of renal calcium content”. Besides, where the note is “n = 11”, the “Change in body weight” value is -38 ± 7 g, the Final body weight is reported as 232 ± 12 g, the Phosphate was 2.61 ± 0.34 mM and the Total calcium is 3.28 ± 0.15 mM.

Values taken from article PMC7002685, “Inhibition of vascular calcification by inositol phosphates derivatized with ethylene glycol oligomers” (Nature Communications, 2020).
